PubChem BioAssay (NCI)
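How tested: cells in 96-well plates exposed to compound for 48 hours at five concentrations. The concentration for 50% growth inhibition is given as GI50. TGI is the concentration that stops growth completely.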

The compounds below were run on NCI-H322M lung (assay: NCI-60 cell line screen, 48 h).
`O=C(O)c1ccc(-c2ccc(/C=N/NC(=O)c3[nH]c4ccc(Br)cc4c3-c3ccccc3)o2)cc1` gave a GI50 of 28.7 µM and a TGI of over 100 µM.
Work on `O=C1NC(=NC2CCCCCC2)N/C1=C\c1ccc2ncoc2c1` yielded a GI50 of 2.65 µM and a TGI of 41.9 µM.
In the case of `Cc1ccc(NC(=O)[C@]23CCC(C)(C)CC2C2=CCC4[C@@]5(C)C[C@@H](O)[C@H](O)[C@@](C)(CO)C5CC[C@@]4(C)[C@]2(C)CC3)cc1` (stereo partly drawn), the GI50 is reported as 14.2 µM and the TGI is reported as 31.1 µM.
`COc1ccc(C(=O)Nc2sc3c(c2C#N)CCC(=O)C3)cc1C(F)(F)F` gave a GI50 of 5.11 µM and a TGI of over 100 µM.
